This is a noisy data set.
Assay: amyloid nucleation score relative to library mode (yeast Sup35 reporter selection) (log enrichment difference); higher = more amyloid nucleation; sequences are the first 22 residues of the Bri2 peptide extended by up to 12 random residues
Details: random library (experiment): 1;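 active = nucleation score significantly above 0 at FDR 0.05; inactive = not significantly above 0 or absent from output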
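Further: [psi-pin-] Saccharomyces cerevisiae expressing SupN fusions, induced by 100 µM Cu2SO4, selected 7 d at 30 °C without adenine and uracil, scored by deep sequencing of output versus input.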

Sequence | amyloid nucleation score
EASNCFAIRHFENKFAVETLICIRQRWYSMCIRS | inactive
EASNCFAIRHFENKFAVETLICIRRGKCKRGNLW | inactive
EASNCFAIRHFENKFAVETLICIRSASVEAEAVR | inactive
EASNCFAIRHFENKFAVETLICIRSQSVVRTGVG | inactive
EASNCFAIRHFENKFAVETLICIRTWWYYMRGDR | -0.12
EASNCFAIRHFENKFAVETLICIRVKDYGGCTNG | inactive
EASNCFAIRHFENKFAVETLICIRWCRVNEVRSG | inactive
EASNCFAIRHFENKFAVETLICIRYMPGRLGVFT | 2.04
EASNCFAIRHFENKFAVETLICIS | inactive
EASNCFAIRHFENKFAVETLICISCRMRCWSLAF | inactive
EASNCFAIRHFENKFAVETLICISDFVSVGLDYT | inactive
EASNCFAIRHFENKFAVETLICISGPQMAGMASG | inactive
EASNCFAIRHFENKFAVETLICISIGQIGNIGSG | 7.8
EASNCFAIRHFENKFAVETLICISIHDTDCRDTR | inactive
EASNCFAIRHFENKFAVETLICISLHLVLPRFIP | inactive
EASNCFAIRHFENKFAVETLICISLIGS | 4.74
EASNCFAIRHFENKFAVETLICISLNTIISFAC | 2.84
EASNCFAIRHFENKFAVETLICISLYLSCVRQGM | inactive
EASNCFAIRHFENKFAVETLICISPI | inactive

Same assay, conditions: random library (experiment): 2

Sequence | amyloid nucleation score
EASNCFAIRHFENKFAVETLICIRRMQKDYVITG | inactive
EASNCFAIRHFENKFAVETLICIRSRTNALCCNR | inactive
EASNCFAIRHFENKFAVETLICIRTWF | -0.683
EASNCFAIRHFENKFAVETLICIRVMSFGSVNMN | inactive
EASNCFAIRHFENKFAVETLICIRVSMCLCWLRG | 5.67
EASNCFAIRHFENKFAVETLICIRYCMTVVMCGG | -0.00995
EASNCFAIRHFENKFAVETLICISADLLVPIVRL | inactive
EASNCFAIRHFENKFAVETLICISCRNLDLWSMR | 5.01
EASNCFAIRHFENKFAVETLICISDSIWMLRFSG | inactive
EASNCFAIRHFENKFAVETLICISFAWLKIIRYG | inactive
EASNCFAIRHFENKFAVETLICISGCYV | 4.57
EASNCFAIRHFENKFAVETLICISGHCTGENSYD | 6.05
EASNCFAIRHFENKFAVETLICISGRSVWHLKAK | inactive
EASNCFAIRHFENKFAVETLICISIFSKSGVRLD | 2.38
EASNCFAIRHFENKFAVETLICISLLRAQDVGYN | inactive
EASNCFAIRHFENKFAVETLICISLLYYSDFDVW | inactive
EASNCFAIRHFENKFAVETLICISQVWHADRPTR | 3.32

Same assay, conditions: random library (experiment): 3

Sequence | amyloid nucleation score
EASNCFAIRHFENKFAVETLICIRQMRNQIVREV | inactive
EASNCFAIRHFENKFAVETLICIRRSALGSSTAA | inactive
EASNCFAIRHFENKFAVETLICIRRYG | inactive
EASNCFAIRHFENKFAVETLICIRSFLGSHGMTR | inactive
EASNCFAIRHFENKFAVETLICIRVNRLRTLQSV | inactive
EASNCFAIRHFENKFAVETLICIRVVWVRPAGEM | inactive
EASNCFAIRHFENKFAVETLICISDMLEGTNCTG | inactive
EASNCFAIRHFENKFAVETLICISGLCLRHMRV | inactive
EASNCFAIRHFENKFAVETLICISGYNSVRMAGC | inactive
EASNCFAIRHFENKFAVETLICISKCNGVKVFAE | 6.84
EASNCFAIRHFENKFAVETLICISLFRMNVRYVC | inactive

From the supplement of paper PMC12067230
